Results reported in paper PMC6224509 (2018).

Target: Galectin-9 (UniProt O00182 1-355)
Assay: SPR; 25°C

B1: human 4-1BB […], wild type, His–Avi (receptor)
chain: not shown
  Kd: > 15 µM
